# Laboratory results published in the supplement of paper PMC8728848.
# The other results are listed elsewhere or left out.
# B1: PLU (Photorhabdus luminiscence) (protein)
# chain: HHHHHHENLYFQSSIVFASIDPRSNPLQTSSQNYVDIPGLKLDVSKYSNSPCLTALITLNIPTPYASGNNFPGGNFAIVTDQGEQLAYGGFTYSSKIPENSGRMPFTLVARYSLASNVSTIKAQWSNIRGSTVHIDSYASISAVIQCNQLV
# How the values were obtained:
# Assay in all cases: glycan array binding signal (z-score within array); higher = stronger binding
# Conditions in all cases: glycan notation: IUPAC condensed, linker removed
# [1] = target: Glc(b1-6)Glc
# How it was run: (§1)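 Glycan array data came from 3228 arrays in the Consortium for Functional Glycomics database, and only arrays with an available protein sequence were kept. Glycan names were put into IUPAC-condensed notation, and columns mapping to the same glycan were averaged. The binding signal is a within-array Z-score, averaged across arrays of one protein sequence run at different concentrations or buffers and across linkers. A negative Z-score can be read as non-binding.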
# [2] = target: GlcA(b1-3)Gal
# How it was run: as §1
# [3] = target: GlcA(b1-3)GlcNAc
# How it was run: as §1
# [4] = target: GlcA(b1-6)Gal
# How it was run: as §1
# [5] = target: GlcA3S(b1-3)Gal(b1-4)GlcNAc(b1-2)Man
# How it was run: as §1
# [6] = target: GlcA3S(b1-3)Gal(b1-4)GlcNAc(b1-3)Gal(b1-4)Glc
# How it was run: as §1
# [7] = target: GlcNAc(a1-3)Gal(b1-4)GlcNAc
# How it was run: as §1
# [8] = target: GlcNAc(a1-4)Gal(b1-3)GlcNAc
# How it was run: as §1
# [9] = target: GlcNAc(a1-4)Gal(b1-4)GalNAc
# How it was run: as §1
# [10] = target: GlcNAc(a1-4)Gal(b1-4)GlcNAc
# How it was run: as §1
# [11] = target: GlcNAc(a1-4)Gal(b1-4)GlcNAc(b1-3)Gal(b1-4)Glc
# How it was run: as §1
# [12] = target: GlcNAc(a1-4)Gal(b1-4)GlcNAc(b1-3)Gal(b1-4)GlcNAc
# How it was run: as §1
# [13] = target: GlcNAc(a1-4)Gal(b1-4)GlcNAc(b1-3)Gal(b1-4)GlcNAc(b1-3)Gal(b1-4)GlcNAc
# How it was run: as §1
# [14] = target: GlcNAc(a1-4)Gal(b1-4)GlcNAc(b1-3)Gal(b1-4)[Fuc(a1-3)]GlcNAc(b1-3)Gal(b1-4)[Fuc(a1-3)]GlcNAc
# How it was run: as §1
# [15] = target: GlcNAc(a1-6)Gal(b1-4)GlcNAc
# How it was run: as §1
# [16] = target: GlcNAc(b1-2)Gal(b1-3)GalNAc
# How it was run: as §1
# [17] = target: GlcNAc(b1-2)Man(a1-3)[GlcNAc(b1-2)Man(a1-6)]Man(b1-4)GlcNAc(b1-4)GlcNAc
# How it was run: as §1
# [18] = target: GlcNAc(b1-2)Man(a1-3)[GlcNAc(b1-2)Man(a1-6)]Man(b1-4)GlcNAc(b1-4)[Fuc(a1-6)]GlcNAc
# How it was run: as §1
# [19] = target: GlcNAc(b1-2)Man(a1-3)[GlcNAc(b1-4)][GlcNAc(b1-2)Man(a1-6)]Man(b1-4)GlcNAc(b1-4)GlcNAc
# How it was run: as §1
# [20] = target: GlcNAc(b1-2)Man(a1-3)[GlcNAc(b1-4)][GlcNAc(b1-2)Man(a1-6)]Man(b1-4)GlcNAc(b1-4)[Fuc(a1-6)]GlcNAc
# How it was run: as §1
# [21] = target: GlcNAc(b1-2)[GlcNAc(b1-4)]Man(a1-3)[GlcNAc(b1-2)Man(a1-6)]Man(b1-4)GlcNAc(b1-4)GlcNAc
# How it was run: as §1
# [22] = target: GlcNAc(b1-2)[GlcNAc(b1-4)]Man(a1-3)[GlcNAc(b1-4)][GlcNAc(b1-2)Man(a1-6)]Man(b1-4)GlcNAc(b1-4)GlcNAc
# How it was run: as §1
# [23] = target: GlcNAc(b1-2)[GlcNAc(b1-4)]Man(a1-3)[GlcNAc(b1-4)][GlcNAc(b1-2)[GlcNAc(b1-6)]Man(a1-6)]Man(b1-4)GlcNAc(b1-4)GlcNAc
# How it was run: as §1
# [24] = target: GlcNAc(b1-2)[GlcNAc(b1-4)]Man(a1-3)[GlcNAc(b1-4)][GlcNAc(b1-2)[GlcNAc(b1-6)]Man(a1-6)]Man(b1-4)GlcNAc(b1-4)[Fuc(a1-6)]GlcNAc
# How it was run: as §1
# [25] = target: GlcNAc(b1-2)[GlcNAc(b1-6)]Man(a1-6)[GlcNAc(b1-2)Man(a1-3)]Man(b1-4)GlcNAc(b1-4)GlcNAc
# How it was run: as §1
# [26] = target: GlcNAc(b1-2)[GlcNAc(b1-6)]Man(a1-6)[GlcNAc(b1-2)Man(a1-3)]Man(b1-4)GlcNAc(b1-4)[Fuc(a1-6)]GlcNAc
# How it was run: as §1
# [27] = target: GlcNAc(b1-2)[GlcNAc(b1-6)]Man(a1-6)[GlcNAc(b1-4)][GlcNAc(b1-2)Man(a1-3)]Man(b1-4)GlcNAc(b1-4)GlcNAc
# How it was run: as §1
# [28] = target: GlcNAc(b1-3)Fuc
# How it was run: as §1
# [29] = target: GlcNAc(b1-3)Gal
# How it was run: as §1
# [30] = target: GlcNAc(b1-3)Gal(b1-3)GalNAc
# How it was run: as §1
# [31] = target: GlcNAc(b1-3)Gal(b1-4)Glc
# How it was run: as §1
# [32] = target: GlcNAc(b1-3)Gal(b1-4)GlcNAc
# How it was run: as §1
# [33] = target: GlcNAc(b1-3)Gal(b1-4)GlcNAc(b1-2)Man(a1-3)[GlcNAc(b1-3)Gal(b1-4)GlcNAc(b1-2)Man(a1-6)]Man(b1-4)GlcNAc(b1-4)GlcNAc
# How it was run: as §1
# [34] = target: GlcNAc(b1-3)Gal(b1-4)GlcNAc(b1-2)Man(a1-3)[GlcNAc(b1-3)Gal(b1-4)GlcNAc(b1-2)Man(a1-6)]Man(b1-4)GlcNAc(b1-4)[Fuc(a1-6)]GlcNAc
# How it was run: as §1
# [35] = target: GlcNAc(b1-3)Gal(b1-4)GlcNAc(b1-2)[GlcNAc(b1-3)Gal(b1-4)GlcNAc(b1-6)]Man(a1-6)[GlcNAc(b1-3)Gal(b1-4)GlcNAc(b1-2)Man(a1-3)]Man(b1-4)GlcNAc(b1-4)GlcNAc
# How it was run: as §1
# [36] = target: GlcNAc(b1-3)Gal(b1-4)GlcNAc(b1-3)Gal(b1-4)GlcNAc
# How it was run: as §1
# [37] = target: GlcNAc(b1-3)Gal(b1-4)GlcNAc(b1-3)Gal(b1-4)GlcNAc(b1-2)Man(a1-3)[GlcNAc(b1-3)Gal(b1-4)GlcNAc(b1-3)Gal(b1-4)GlcNAc(b1-2)Man(a1-6)]Man(b1-4)GlcNAc(b1-4)GlcNAc
# How it was run: as §1
# [38] = target: GlcNAc(b1-3)Gal(b1-4)GlcNAc(b1-3)Gal(b1-4)GlcNAc(b1-2)Man(a1-3)[GlcNAc(b1-3)Gal(b1-4)GlcNAc(b1-3)Gal(b1-4)GlcNAc(b1-2)Man(a1-6)]Man(b1-4)GlcNAc(b1-4)[Fuc(a1-6)]GlcNAc
# How it was run: as §1
# [39] = target: GlcNAc(b1-3)Gal(b1-4)GlcNAc(b1-3)Gal(b1-4)GlcNAc(b1-2)[GlcNAc(b1-3)Gal(b1-4)GlcNAc(b1-3)Gal(b1-4)GlcNAc(b1-6)]Man(a1-6)[GlcNAc(b1-3)Gal(b1-4)GlcNAc(b1-3)Gal(b1-4)GlcNAc(b1-2)Man(a1-3)]Man(b1-4)GlcNAc(b1-4)[Fuc(a1-6)]GlcNAc
# How it was run: as §1
# [40] = target: GlcNAc(b1-3)Gal(b1-4)GlcNAc(b1-3)Gal(b1-4)GlcNAc(b1-3)Gal(b1-4)GlcNAc(b1-2)Man(a1-3)[GlcNAc(b1-3)Gal(b1-4)GlcNAc(b1-3)Gal(b1-4)GlcNAc(b1-3)Gal(b1-4)GlcNAc(b1-2)Man(a1-6)]Man(b1-4)GlcNAc(b1-4)GlcNAc
# How it was run: as §1
# [41] = target: GlcNAc(b1-3)Gal(b1-4)GlcNAc(b1-3)Gal(b1-4)GlcNAc(b1-3)Gal(b1-4)GlcNAc(b1-2)Man(a1-3)[GlcNAc(b1-3)Gal(b1-4)GlcNAc(b1-3)Gal(b1-4)GlcNAc(b1-3)Gal(b1-4)GlcNAc(b1-2)Man(a1-6)]Man(b1-4)GlcNAc(b1-4)[Fuc(a1-6)]GlcNAc
# How it was run: as §1
# [42] = target: GlcNAc(b1-3)Gal(b1-4)GlcNAc(b1-3)Gal(b1-4)GlcNAc(b1-3)Gal(b1-4)GlcNAc(b1-2)[GlcNAc(b1-3)Gal(b1-4)GlcNAc(b1-3)Gal(b1-4)GlcNAc(b1-3)Gal(b1-4)GlcNAc(b1-6)]Man(a1-6)[GlcNAc(b1-3)Gal(b1-4)GlcNAc(b1-3)Gal(b1-4)GlcNAc(b1-3)Gal(b1-4)GlcNAc(b1-2)Man(a1-3)]Man(b1-4)GlcNAc(b1-4)[Fuc(a1-6)]GlcNAc
# How it was run: as §1
# [43] = target: GlcNAc(b1-3)Gal(b1-4)GlcNAc(b1-3)Gal(b1-4)GlcNAc(b1-3)Gal(b1-4)GlcNAc(b1-3)Gal(b1-4)GlcNAc(b1-2)Man(a1-3)[GlcNAc(b1-3)Gal(b1-4)GlcNAc(b1-3)Gal(b1-4)GlcNAc(b1-3)Gal(b1-4)GlcNAc(b1-3)Gal(b1-4)GlcNAc(b1-2)Man(a1-6)]Man(b1-4)GlcNAc(b1-4)GlcNAc
# How it was run: as §1
# [44] = target: GlcNAc(b1-3)Gal(b1-4)GlcNAc(b1-3)Gal(b1-4)GlcNAc(b1-3)Gal(b1-4)GlcNAc(b1-3)Gal(b1-4)GlcNAc(b1-2)Man(a1-3)[GlcNAc(b1-3)Gal(b1-4)GlcNAc(b1-3)Gal(b1-4)GlcNAc(b1-3)Gal(b1-4)GlcNAc(b1-3)Gal(b1-4)GlcNAc(b1-2)Man(a1-6)]Man(b1-4)GlcNAc(b1-4)[Fuc(a1-6)]GlcNAc
# How it was run: as §1
# [45] = target: GlcNAc(b1-3)Gal(b1-4)GlcNAc(b1-3)Gal(b1-4)GlcNAc(b1-3)Gal(b1-4)GlcNAc(b1-3)Gal(b1-4)GlcNAc(b1-2)[GlcNAc(b1-3)Gal(b1-4)GlcNAc(b1-3)Gal(b1-4)GlcNAc(b1-3)Gal(b1-4)GlcNAc(b1-3)Gal(b1-4)GlcNAc(b1-6)]Man(a1-6)[GlcNAc(b1-3)Gal(b1-4)GlcNAc(b1-3)Gal(b1-4)GlcNAc(b1-3)Gal(b1-4)GlcNAc(b1-3)Gal(b1-4)GlcNAc(b1-2)Man(a1-3)]Man(b1-4)GlcNAc(b1-4)[Fuc(a1-6)]GlcNAc
# How it was run: as §1
binder,measurement,setting,value
B1,glycan array binding signal (z-score),[1],-0.288
same,glycan array binding signal (z-score),[2],-0.245
same,glycan array binding signal (z-score),[3],-0.329
same,glycan array binding signal (z-score),[4],-0.269
same,glycan array binding signal (z-score),[5],-0.284
same,glycan array binding signal (z-score),[6],-0.257
same,glycan array binding signal (z-score),[7],-0.248
same,glycan array binding signal (z-score),[8],-0.109
same,glycan array binding signal (z-score),[9],-0.301
same,glycan array binding signal (z-score),[10],-0.277
same,glycan array binding signal (z-score),[11],-0.234
same,glycan array binding signal (z-score),[12],-0.322
same,glycan array binding signal (z-score),[13],-0.367
same,glycan array binding signal (z-score),[14],-0.226
same,glycan array binding signal (z-score),[15],-0.285
same,glycan array binding signal (z-score),[16],-0.248
same,glycan array binding signal (z-score),[17],-0.291
same,glycan array binding signal (z-score),[18],-0.212
same,glycan array binding signal (z-score),[19],-0.223
same,glycan array binding signal (z-score),[20],-0.337
same,glycan array binding signal (z-score),[21],-0.253
same,glycan array binding signal (z-score),[22],-0.365
same,glycan array binding signal (z-score),[23],-0.322
same,glycan array binding signal (z-score),[24],-0.254
same,glycan array binding signal (z-score),[25],-0.254
same,glycan array binding signal (z-score),[26],-0.102
same,glycan array binding signal (z-score),[27],-0.19
same,glycan array binding signal (z-score),[28],-0.327
same,glycan array binding signal (z-score),[29],-0.354
same,glycan array binding signal (z-score),[30],-0.274
same,glycan array binding signal (z-score),[31],-0.235
same,glycan array binding signal (z-score),[32],-0.292
same,glycan array binding signal (z-score),[33],-0.212
same,glycan array binding signal (z-score),[34],-0.192
same,glycan array binding signal (z-score),[35],-0.248
same,glycan array binding signal (z-score),[36],-0.263
same,glycan array binding signal (z-score),[37],-0.156
same,glycan array binding signal (z-score),[38],-0.213
same,glycan array binding signal (z-score),[39],-0.158
same,glycan array binding signal (z-score),[40],-0.065
same,glycan array binding signal (z-score),[41],-0.148
same,glycan array binding signal (z-score),[42],-0.258
same,glycan array binding signal (z-score),[43],-0.221
same,glycan array binding signal (z-score),[44],-0.215
same,glycan array binding signal (z-score),[45],-0.155
